# Out of some 360,000 compounds screened, about 16,000 (4.4%) were called active. The inconclusive results got no clear call from the source; some entries with a clear call stand among them for comparison. The call rests on the fitted dose curve; in most records, active means well fitted inhibition curve with a large enough effect; inconclusive means small, poorly fitted or top-dose-only effect; inactive means no such curve, though single readings can be large or run the other way. Potencies of inconclusive entries are doubtful fits and often do not repeat.
# Biological target: Bromodomain adjacent to zinc finger domain protein 2B (Homo sapiens) (UniProt Q9UIF8)
# Test: qHTS Assay for Inhibitors of BAZ2B; further: nearly all actives have a fitted effect of over 60% in size
# Conditions: AlphaScreen BAZ2B-H3K14Ac peptide displacement; series mostly up to 114 µM
# Method in brief: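 Inhibition is scored as reduced AlphaScreen emission. The BAZ2B/b-H3(5-23)K14Ac complex (50 nM each) in PBS pH 7.4, 0.01% Tween-20 meets compound (up to 110 uM) for 30 min at RT before bead addition.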
# Potency means the concentration at half of the fitted maximal effect; tags describe the fitted curve by direction and shape.
# UniProt Q9UIF8, sequence (Q9UIF8 whole entry, looked up, the tested form may be a part): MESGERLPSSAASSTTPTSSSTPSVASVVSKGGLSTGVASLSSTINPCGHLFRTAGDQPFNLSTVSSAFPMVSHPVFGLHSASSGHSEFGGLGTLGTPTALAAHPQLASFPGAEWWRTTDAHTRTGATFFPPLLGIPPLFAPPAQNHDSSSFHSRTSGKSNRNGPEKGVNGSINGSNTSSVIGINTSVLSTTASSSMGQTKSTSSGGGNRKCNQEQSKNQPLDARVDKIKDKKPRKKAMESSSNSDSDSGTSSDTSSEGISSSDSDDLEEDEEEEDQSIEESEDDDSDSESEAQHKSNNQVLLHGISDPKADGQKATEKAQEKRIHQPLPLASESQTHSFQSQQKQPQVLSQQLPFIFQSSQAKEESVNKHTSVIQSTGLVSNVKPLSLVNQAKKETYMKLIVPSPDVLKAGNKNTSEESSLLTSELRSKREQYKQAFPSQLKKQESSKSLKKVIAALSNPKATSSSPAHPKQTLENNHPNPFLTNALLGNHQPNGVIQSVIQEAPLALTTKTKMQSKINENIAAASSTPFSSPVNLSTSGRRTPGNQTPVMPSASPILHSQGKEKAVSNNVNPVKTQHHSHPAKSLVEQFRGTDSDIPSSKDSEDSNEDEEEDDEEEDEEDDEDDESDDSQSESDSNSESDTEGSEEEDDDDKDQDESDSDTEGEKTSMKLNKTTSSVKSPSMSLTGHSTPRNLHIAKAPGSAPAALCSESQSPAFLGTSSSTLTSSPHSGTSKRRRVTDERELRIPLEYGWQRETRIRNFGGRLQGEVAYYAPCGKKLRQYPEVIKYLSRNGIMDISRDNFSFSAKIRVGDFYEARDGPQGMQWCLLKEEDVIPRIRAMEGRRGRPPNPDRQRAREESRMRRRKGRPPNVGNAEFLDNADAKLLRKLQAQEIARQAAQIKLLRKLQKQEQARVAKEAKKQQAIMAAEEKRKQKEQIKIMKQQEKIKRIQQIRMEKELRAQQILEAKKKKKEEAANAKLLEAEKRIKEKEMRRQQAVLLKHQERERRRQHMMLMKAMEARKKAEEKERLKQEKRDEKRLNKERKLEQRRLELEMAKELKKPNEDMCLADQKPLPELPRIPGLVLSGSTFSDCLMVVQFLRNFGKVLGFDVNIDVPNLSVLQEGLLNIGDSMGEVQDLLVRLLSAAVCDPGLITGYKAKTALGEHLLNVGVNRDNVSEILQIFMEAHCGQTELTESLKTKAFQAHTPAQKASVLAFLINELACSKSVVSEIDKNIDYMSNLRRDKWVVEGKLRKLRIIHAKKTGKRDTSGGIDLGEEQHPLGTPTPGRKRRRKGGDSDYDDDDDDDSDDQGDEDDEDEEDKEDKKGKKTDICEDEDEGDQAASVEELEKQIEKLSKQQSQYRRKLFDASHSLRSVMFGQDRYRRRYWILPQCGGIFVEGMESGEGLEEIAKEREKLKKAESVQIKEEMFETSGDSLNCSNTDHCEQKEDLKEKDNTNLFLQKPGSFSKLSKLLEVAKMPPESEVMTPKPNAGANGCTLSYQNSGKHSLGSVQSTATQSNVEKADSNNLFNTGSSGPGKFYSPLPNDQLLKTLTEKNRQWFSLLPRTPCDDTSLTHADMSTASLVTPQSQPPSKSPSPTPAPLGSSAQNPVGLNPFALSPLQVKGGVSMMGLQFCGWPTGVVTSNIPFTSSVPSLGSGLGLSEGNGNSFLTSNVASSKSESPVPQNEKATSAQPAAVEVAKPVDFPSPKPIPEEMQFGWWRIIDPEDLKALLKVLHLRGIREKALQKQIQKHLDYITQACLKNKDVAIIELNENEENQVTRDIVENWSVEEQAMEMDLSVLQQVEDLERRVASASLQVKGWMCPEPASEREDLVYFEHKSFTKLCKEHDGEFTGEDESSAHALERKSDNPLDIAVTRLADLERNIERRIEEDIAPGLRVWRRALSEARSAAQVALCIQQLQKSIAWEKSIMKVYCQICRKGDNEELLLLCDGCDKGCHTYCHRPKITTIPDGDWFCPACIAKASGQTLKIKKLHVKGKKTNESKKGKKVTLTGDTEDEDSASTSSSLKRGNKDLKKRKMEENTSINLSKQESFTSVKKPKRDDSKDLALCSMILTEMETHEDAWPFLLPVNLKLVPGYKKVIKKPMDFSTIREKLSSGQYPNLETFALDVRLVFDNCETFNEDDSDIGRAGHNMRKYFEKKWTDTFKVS
row,Compound,Potency
1,Cc1cc(C)cc(N2C(=O)NC(=O)/C(=C\c3cccn3-c3ccc(Cl)cc3)C2=O)c1,inactive
2,Cc1ccc(N)c(C(=O)c2ccccc2)c1,"inconclusive: 79.4 µM [inhibitor, single point]"
3,COc1cc(/C=C2/SC(=S)N(Cc3ccccc3)C2=O)ccc1OCC(=O)O,active: 56.2 µM
4,Cc1ccccc1N,inactive
5,O=C(O)CCCc1ccc(N(CCCl)CCCl)cc1,active: 56.2 µM
6,O=[N+]([O-])c1ccc(N2CCNCC2)cc1NCc1ccco1,"inconclusive: 79.4 µM [inhibitor, single point]"
7,O=c1[nH]c(=S)n(CCC2=CCCCC2)c(O)c1/C=N/N1CCOCC1,"inconclusive: 89.1 µM [inhibitor, single point]"
8,CC(C)N1C(=O)CC2(CC[N+](C)(CCOC(=O)C(O)(c3ccccc3)c3ccccc3)CC2)C1=O (centres undefined),inactive
9,COc1ccc(Cn2c(N)c(C(=O)NCc3ccco3)c3nc4ccccc4nc32)cc1,inactive
10,CCn1c(O)c(N=Nc2ccc(S(=O)(=O)N3CCOCC3)cc2)c(=O)n(CC)c1=S,"inconclusive: 11.2 µM [inhibitor, full curve, poor fit]"
11,CCOc1ccccc1OCCCCN1CCCC1,"inconclusive: 89.1 µM [inhibitor, single point]"
12,Clc1ccc(CNCCc2ccc3c(c2)OCO3)cc1,active: 44.7 µM
13,Cc1ccc2c(c1)C1CN(C)CCC1N2C(=O)COc1ccc(N(C)C(=O)C(C)(C)C)cc1 (centres undefined),"inconclusive: 70.8 µM [inhibitor, single point]"
14,COc1ccc(N2CCN(C(CNC(=O)Oc3ccccc3)c3cccnc3)CC2)cc1 (centres undefined),"inconclusive: 50.1 µM [inhibitor, partial curve]"
15,O=C1NC(=O)C(=Cc2ccc(-c3ccc(Cl)cc3)o2)C(=O)N1,"inconclusive: 89.1 µM [inhibitor, single point]"
16,O=C1NC(=O)C(=Cc2ccc(N3CCN(C(=O)c4ccccc4)CC3)c([N+](=O)[O-])c2)C(=O)N1,"inconclusive: 79.4 µM [inhibitor, single point]"
17,O=C(c1ccccc1)c1ccccc1N=Cc1c(O)[nH]c(=O)[nH]c1=O,"inconclusive: 89.1 µM [inhibitor, single point]"
18,CCC(C)n1c(O)c(C(c2ccccn2)c2c(O)n(C(C)CC)c(=S)[nH]c2=O)c(=O)[nH]c1=S (centres undefined),active: 35.5 µM
19,C=CCN1CCc2cccc3c2[C@H]1Cc1ccc(O)c(O)c1-3,"inconclusive: 79.4 µM [inhibitor, single point]"
20,c1ccc(NC2=Nc3ccccc3CC2)cc1,"inconclusive: 6.31 µM [inhibitor, single point]"
21,COc1cc(CN2CCCC(C(=O)c3sccc3C)C2)cc(Cl)c1O (centres undefined),"inconclusive: 79.4 µM [inhibitor, single point]"
22,Cc1cc(/C=C2\C(=O)NC(=O)N(C)C2=O)c(C)n1-c1ccc2c(c1)OCO2,"inconclusive: 89.1 µM [inhibitor, single point]"
23,O=C1NC(=O)C(=Cc2ccc(-c3ccccc3[N+](=O)[O-])o2)C(=O)N1,"inconclusive: 79.4 µM [inhibitor, single point]"
24,CC(=O)Nc1nc(CCl)cs1,inactive
25,CCCCC(=O)N/N=C/c1c(O)n(CCc2ccc(OC)c(OC)c2)c(=O)[nH]c1=O,active: 50.1 µM

row,Compound,Potency
1,COc1cc(/C=C/c2nc3ccccc3c(=O)n2-c2cccc(O)c2)ccc1O,"inconclusive: 79.4 µM [inhibitor, partial curve]"
2,N#CCCn1cc(C(=O)Nc2ccccc2Cl)c(-c2ccc(F)cc2)n1,"inconclusive: 89.1 µM [inhibitor, single point]"
3,COc1ccc(CCNCc2ccccc2F)cc1,active: 44.7 µM
4,C=CCc1cccc(C=Nc2c[nH]c(=O)[nH]c2=O)c1O,"inconclusive: 89.1 µM [inhibitor, single point]"
5,O=c1[nH]c(=S)[nH]c(O)c1C(c1ccccn1)c1c(O)[nH]c(=S)[nH]c1=O,active: 20 µM
6,CCN(CC)c1ccc(CNCCc2ccc(F)cc2)cc1,active: 44.7 µM
7,Cc1cccc(CN2CCN(Cc3ccc(Cl)cc3)CC2)c1,active: 31.6 µM
8,CC(C)Nc1ccc(Nc2ccccc2)cc1,active: 28.2 µM
9,COc1ccc(NC(c2ccccc2)P(=O)(Oc2ccccc2)Oc2ccccc2)cc1 (centres undefined),active: 25.1 µM
10,Cc1nc2ccc(Cl)cc2c(=O)n1-c1cccc(Cl)c1,inactive
11,CC(=O)N1c2ccc(S(=O)(=O)NCC3CCC(C(=O)Nc4cc(C)cc(C)c4)CC3)cc2CC1C (centres undefined),"inconclusive: 89.1 µM [inhibitor, single point]"
12,CC(=NCCCN1CCCCC1)c1c(O)n(Cc2ccccc2)c(=O)[nH]c1=O,inactive
13,C=CCn1c(O)c(N=Nc2c(C)n(C)n(-c3ccccc3)c2=O)c(=O)[nH]c1=S,active: 7.08 µM
14,C/C(=N\NC(=O)c1ccccc1)c1c(O)n(Cc2ccccc2)c(=O)[nH]c1=O,inactive
15,O=C(Nc1cccc2ncccc12)c1ccccc1Cl,"inconclusive: 44.7 µM [inhibitor, single point]"
16,CC1CCC(N2CCN(C(=O)COc3ccccc3)CC2)CC1 (centres undefined),active: 50.1 µM
17,Clc1ccc(CCNCc2ccncc2)c(Cl)c1,active: 50.1 µM
18,Oc1ccc(/C=N/NP(=S)(c2ccccc2)c2ccccc2)c(O)c1O,"inconclusive: 50.1 µM [inhibitor, partial curve]"
19,FC(F)(F)c1ccccc1CN1CCN(Cc2ccccc2)CC1,active: 50.1 µM
20,CCc1ccc(N2C(=O)NC(=O)/C(=C/c3ccsc3)C2=O)cc1,inactive
21,Cc1cc2c(cc1C)-n1c(-c3ccccc3)c3c(=O)n(C)c(=O)n(C)c3c1C(c1ccco1)N2 (centres undefined),"inconclusive: 79.4 µM [inhibitor, single point]"
22,O=[N+]([O-])c1ccc(CNCCc2ccccc2)cc1,active: 50.1 µM
23,Cc1c(C(=O)Nc2ccccc2)cc(-c2ccccc2)n1CCCN1CCOCC1,"inconclusive: 79.4 µM [inhibitor, partial curve]"
24,CCCCOC(=O)CCN1C(=O)/C(=C2\SC(=S)N(CCC(=O)OCCCC)C2=O)SC1=S,"inconclusive: 39.8 µM [inhibitor, partial curve]"
25,CCc1c(C)nc(N)nc1N1N=C1SC(C(C)=O)C(C)=O,"inconclusive: 89.1 µM [inhibitor, single point]"

row,Compound,Potency
1,O=c1cccc2n1CC1CNCC2C1 (centres undefined),"inconclusive: 89.1 µM [inhibitor, single point]"
2,Cc1ccccc1-n1c(C)cc(/C=C2/C(=O)NC(=O)N(Cc3ccco3)C2=O)c1C,"inconclusive: 39.8 µM [inhibitor, full curve]"
3,CN(C)c1ccc(C(O)P(=O)(OC2CCCCC2)OC2CCCCC2)cc1 (centres undefined),active: 44.7 µM
4,COc1ccc2[nH]c3c(c2c1)CCN=C3C,active: 44.7 µM
5,c1ccc(C(OCCN2CCNCC2)c2ccccc2)cc1,"inconclusive: 70.8 µM [inhibitor, partial curve]"
6,Cc1ccc(-n2c(O)c(/C=C3/C(c4ccccc4)=Nc4ccccc43)c(=O)[nH]c2=O)cc1,"inconclusive: 50.1 µM [inhibitor, partial curve]"
7,CC(C)[C@@]1(NC(=O)[C@@H]2C[C@@H]3c4cccc5[nH]cc(c45)C[C@H]3N(C)C2)O[C@@]2(O)[C@@H]3CCCN3C(=O)[C@H](Cc3ccccc3)N2C1=O,active: 39.8 µM
8,COc1ccc(OC)c(-n2c(O)c(C=Nc3c(C)n(C)n(-c4ccccc4)c3=O)c(=O)[nH]c2=S)c1,inactive
9,O=[N+]([O-])c1ccc(-c2ccc(C=Nc3cccc4ccccc34)o2)cc1,active: 39.8 µM
10,O=C(N/N=C/c1c(O)n(Cc2ccc(F)cc2)c(=S)[nH]c1=O)c1ccncc1,active: 79.4 µM
11,CCOc1ccc(N2C(=O)/C(=C/c3ccco3)C(=O)NC2=S)cc1,active: 28.2 µM
12,Cc1cccc(C2=NCC(=O)N(CC(=O)NCc3ccco3)c3sc4c(c32)CCCC4)c1,active: 44.7 µM
13,CN(C)S(=O)(=O)c1cc(C(=O)N2CCC(C(=O)O)(c3ccccc3)CC2)ccc1Cl,inactive
14,O=S(=O)(c1ccc(O)cc1)c1ccc(O)cc1,inactive
15,CN1CCN(c2ccc([N+](=O)[O-])c(NCc3ccco3)c2)CC1,"inconclusive: 79.4 µM [inhibitor, single point]"
16,CN1CCN(c2ccc(N)cc2Cl)CC1,"inconclusive: 89.1 µM [inhibitor, single point]"
17,CC(C)c1ccc(-n2c(O)c(C=NCCN3CCNCC3)c(=O)[nH]c2=S)cc1,"inconclusive: 22.4 µM [inhibitor, single point]"
18,CCCCCOc1ccc(C)cc1CN(CCCl)CCCl,inactive
19,CC1(C)C(=O)C=C[C@]2(C)[C@H]3CC[C@@]4(C)[C@H](c5ccoc5)OC(=O)[C@H]5O[C@]54[C@]3(C)[C@H](O)C[C@@H]12,"inconclusive: 79.4 µM [inhibitor, single point]"
20,CCOc1ccc(CN(CCc2ccc3c(c2)OCO3)Cc2cc(OC)ccc2O)cc1,"inconclusive: 14.1 µM [inhibitor, partial curve]"
21,COc1ccc(/C=C2/C(=O)NC(=O)N(Cc3ccco3)C2=O)cc1,active: 31.6 µM
22,O=C1NC(=O)N(c2ccccc2)C(=O)/C1=C/c1ccc(Sc2ccccc2)o1,active: 50.1 µM
23,C=CCn1c(O)c(C(C)=NCCCO)c(=O)[nH]c1=O,inactive
24,COc1ccc(CNCCc2ccccc2F)c(OC)c1C,"inconclusive: 89.1 µM [inhibitor, single point]"
